Sequences with one replicate were seen in a single cluster, so their values are uncertain.
Tested on: ATP
Experiment: switch fluorescence ratio, 500 uM ATP over buffer (Cy3 cluster intensity, sum of 5 cycles each) (fold (ratio)); higher = stronger signal-on switching upon ATP binding; sequences stand for … in TCGTCGGCAGCGTCAGATGTGTATAAGAGACAGTTTTTTTTTTTTTTTTTTTTTTTTT…TC
Conditions: aptamer strand: ATP DNA aptamer (quencher-CACCTGGGGGAGTATTGCGGAGGAAGG + anchor), 100 nM annealed; ATP concentration: 500 uM; one replicate
In short: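 Values give the fluorescence ratio for each switch-domain sequence, averaged from per-cluster ratios of summed target-cycle to summed buffer-cycle Cy3 intensity. The Cy3-labelled switching-strand clusters sat on a modified Illumina MiSeq flow-cell, were annealed to 100 nM quencher-labelled ATP aptamer, and were imaged in selection buffer, then after 15 min with 500 uM ATP at 22 °C. Five cycles ran with NaOH stripping and re-annealing between them, and clusters outside 100-1000 RFU were excluded.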
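Further: ATP exposure 15 min at 22 °C before imaging.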

| Sequence | switch fluorescence ratio |
| --- | --- |
| GATGAAGTAG | 1.01 |
| GGGCGGAACG | 1.04 |
| GCCACTCGGC | 0.981 |
| TTTTTGTCCT | 0.994 |
| TTCGACGCGG | 1.13 |
| CACTTTTTAA | 0.989 |
| TTGATTGCTG | 1.02 |
| TCCCAGAAA | 1.03 |
| AGTGACATTA | 1.07 |
| GCCACCCGCA | 1.52 |
| CGTGAGCGTA | 0.966 |
| TTCGCGGGCG | 1.03 |
| GGTACGCTCA | 1.01 |
| GCTGCTGGAA | 1.04 |
| CCCAGGGGGC | 1.6 |
| ACCTGTAGCT | 1.05 |
| TTCTCGTTTT | 0.988 |
| ATTACTCGAG | 0.992 |
| TTACTAACCA | 1.07 |
| TTAGTAGTAT | 0.942 |
| AAATAGGGAT | 0.984 |
| TTATCAATCT | 1.03 |
| GCGGCCTGT | 1 |

| Sequence | switch fluorescence ratio |
| --- | --- |
| ACACAGGGGC | 1.04 |
| TGGTGAAGT | 1.05 |
| CCAGGCGGAG | 1.04 |
| CAATCAGGAA | 1.07 |
| CCATCAACGT | 1.01 |
| AATGTGGCTG | 1.01 |
| TGTTAATATA | 1.04 |
| TTTGTTCAAA | 1.03 |
| TCAGGGTA | 0.964 |
| CATTGACAGG | 1.04 |
| TGAAGGG | 0.983 |
| GAAAGGTCG | 0.993 |
| CATTCAGCAT | 1.7 |
| CTACATTCTA | 1 |
| GCTCGTCAGG | 1.03 |
| ATGAAATAAG | 1.02 |
| CGGTATATAG | 1.04 |
| ATTGCTGTGT | 0.997 |
| GCTGAGCAAT | 1.39 |
| AGACGCCTAA | 1.04 |
| GCTTTCCCAG | 1.14 |
| TCCCCACTTC | 1.06 |
| GTTCGGCGGA | 0.961 |

| Sequence | switch fluorescence ratio |
| --- | --- |
| TGGAAGAAAC | 1.05 |
| GGGGAGGCGG | 1.01 |
| CCGGGGTTCG | 0.938 |
| TACTAGAAGT | 1.03 |
| TTTCCTATCA | 0.991 |
| GTTATCGCGG | 0.97 |
| CGCCTTATCG | 1.02 |
| ACGGGACAGT | 1.18 |
| GGGCTGAACA | 1.01 |
| GGCGAGCCCG | 0.998 |
| GCCGGTCATG | 0.991 |
| GAAGAACCGA | 1.09 |
| TTTAGGATTC | 0.976 |
| CACTCGTTC | 1.02 |
| CCCAGGTCTT | 1.86 |
| GGATCTCGAT | 0.976 |
| ATGTCAAGGT | 0.989 |
| GGCTGCAGGA | 0.994 |
| TATAAAGCAA | 1.46 |
| GTTGCACATA | 1.03 |
| AGTTATACAG | 0.956 |
| GTGCACTCGG | 1.03 |
| CGCCGCGCCT | 1.34 |

| Sequence | switch fluorescence ratio |
| --- | --- |
| CCGGGCTTTT | 1.03 |
| AGTTCTTCA | 1.02 |
| TTAGACCTAG | 0.973 |
| TAGCGTATGG | 1.06 |
| CGGGCGCTTT | 1.03 |
| CAAAAGTTTT | 0.95 |
| ACTGTATA | 1.23 |
| TCCCGGTGTC | 1.41 |
| GAGTTGTGTG | 1 |
| TCTCGCACTG | 1.17 |
| TTGAACCAGC | 1.03 |
| ATAGTCATGG | 0.982 |
| TCCCGATGGC | 1.09 |
| TTTTTCTTAG | 0.985 |
| AGGGCGTTTT | 0.986 |
| GACTCGGTGA | 1.03 |
| TGTGACAGAC | 1.11 |
| TCCTTATGTC | 1.03 |
| GGTTGTCCTT | 0.986 |
| CCGAGTCCGT | 2.22 |
| CCAGGGAGG | 1.01 |
| GATGGATGCT | 1.02 |
| AGTGAAATAG | 0.999 |

| Sequence | switch fluorescence ratio |
| --- | --- |
| GTGGTTACTC | 0.986 |
| GGGGTCTATG | 0.991 |
| GACGTAGGAC | 1.93 |
| AGAGTATGA | 0.983 |
| CATTCCTTTG | 1.1 |
| TCCACGCATA | 5.13 |
| CACCCTGTCT | 1.05 |
| TTGTATGCTA | 1.04 |
| CCTACCATCG | 1.12 |
| GGGAATGTTG | 0.98 |
| GGTATGTTCC | 1.01 |
| AAAATCTCGC | 1.01 |
| TCTCTGACTC | 1.21 |
| CGCGTCGACT | 0.98 |
| TGGGCGTGCT | 1 |
| ACTGTCTACG | 1.12 |
| CGAACTCTAA | 1 |
| TGGGAGCACG | 1.01 |
| CAATCTAGAG | 1.02 |
| CAGTACCAAC | 1.09 |
| TTAAGAATAG | 1 |
| CCCCCCCCCT | 2 |
| ACCAATAACT | 1.06 |

| Sequence | switch fluorescence ratio |
| --- | --- |
| TCAAGACTAC | 1.06 |
| GACACGGGGG | 0.985 |
| CCTAAGCTCG | 1.01 |
| GGTTTCATGT | 0.972 |
| TTGCATGTTC | 1.08 |
| TAGCGCCGAC | 1.03 |
| TAAGATGTGG | 0.997 |
| ATTCAGCGGC | 1.04 |
| TGACGCAGG | 1.05 |
| AACCACCGAT | 1.1 |
| GGGGCGGAGC | 1.01 |
| GAGCGTGTAG | 1.04 |
| ACGTAGCTAG | 1.47 |
| GTGTTAAATT | 1.04 |
| AAACGTCCAG | 1.01 |
| CAGTATCTTA | 1.01 |
| ACGGGGAACC | 1.06 |
| TATAGACGTG | 0.966 |
| CGTTACGGAT | 0.999 |
| CGGATTAAGA | 0.983 |
| CTATCGCCTA | 0.992 |
| GCAATGATGA | 1.03 |
| AGACTAGGGA | 1.01 |

| Sequence | switch fluorescence ratio |
| --- | --- |
| TCAGTGCACA | 0.998 |
| TCGGATCGAG | 1 |
| AAAAACACAA | 1.13 |
| ATGTTGACTG | 1.13 |
| GGTAAATACA | 1.03 |
| ACTAATCGAT | 1.01 |
| TGGGAATTGC | 1.01 |
| CTGTTTCTTT | 0.999 |
| CCGTGACGTC | 0.987 |
| GGGCTGCATC | 1.05 |
| AAGACTAGGA | 0.958 |
| GCCAGTCGGG | 0.993 |
| ACGGGGGTGG | 1.06 |
| ACGATAGCAT | 1.13 |
| ATGAATCTAT | 0.952 |
| CTGATAACTC | 1 |
| ATCTGGCCCC | 1.02 |
| TTTTTTCTAG | 1.03 |
| ATTATTCTTG | 0.978 |
